For this assay, the target named is T1, GDF-11 (UniProt O95390 299-407).
T1 sequence (looked up): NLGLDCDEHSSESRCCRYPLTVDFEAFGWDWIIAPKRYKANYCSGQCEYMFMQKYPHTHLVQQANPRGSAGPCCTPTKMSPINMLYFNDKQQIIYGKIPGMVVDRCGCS
The experiment in a line: cell-based or functional assay.

B1: ActRIIa-hFc (Fc fusion)
chain: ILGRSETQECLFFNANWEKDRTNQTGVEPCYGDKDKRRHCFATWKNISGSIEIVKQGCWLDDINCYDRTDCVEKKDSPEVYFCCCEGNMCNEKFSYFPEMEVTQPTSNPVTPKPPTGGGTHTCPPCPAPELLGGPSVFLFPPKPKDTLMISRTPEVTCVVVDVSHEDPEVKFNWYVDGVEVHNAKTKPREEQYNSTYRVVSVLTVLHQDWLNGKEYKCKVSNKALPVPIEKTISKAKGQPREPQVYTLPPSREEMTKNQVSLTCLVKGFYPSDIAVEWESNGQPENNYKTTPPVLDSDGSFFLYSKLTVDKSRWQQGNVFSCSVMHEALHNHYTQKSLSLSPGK
Consider B1, for which the “GDF-11 signaling in the A-204 Reporter Gene Assay (pGL3(CAGA)12 luciferase), IC50” value was roughly 200 pM.

These data come from patent US20090118188A1 (ACCELERON PHARMA, published 2009).
